{"source": "a collection of fitness landscapes (doi:10.1126/science.1257360)", "parents": {"B1": {"name": "PhoQ; a variant is named by its letters at X, in order, P23837 (parent)", "chain": "MKKLLRLFFPLSLRVRFLLATAAVVLVLSLAYGMVALIGYSVSFDKTTFRLLRGESNLFYTLAKWENNKLHVELPENIDKQSPTMTLIYDENGQLLWAQRDVPWLMKMIQPDWLKSNGFHEIEADVNDTSLLLSGDHSIQQQLQEVREDDDDAEMTHSVAVNVYPATSRMPKLTIVVVDTIPVELKSSYMVWSWFIYVLSANLLLVIPLLWVAAWWSLRPIEALAKEVRELEEHNRELLNPATTRELTSLVRNLNRLLKSERERYDKYRTTLTDLTHSLKTPLXXLQXXLRSLRSEKMSVSDAEPVMLEQISRISQQIGYYLHRASMRGGTLLSRELHPVAPLLDNLTSALNKVYQRKGVNISLDISPEISFVGEQNDFVEVMGNVLDNACKYCLEFVEISARQTDEHLYIVVEDDGPGIPLSKREVIFDRGQRVDTLRPGQGVGLAVAREITEQYEGKIVAGESMLGGARMEVIFGRQHSAPKDE"}}, "note": "Some of the results follow."}
{"variants_of": "B1", "assay": "enrichment ratio after two sorts for PhoP signalling (ratio (wild type AVST 3.29)); higher = more functional", "settings": "with PhoP (E. coli)"}
{"variant": "NMYM", "enrichment ratio": "≤ 0.25"}
{"variant": "AMAQ", "enrichment ratio": 12.1}
{"variant": "IVVW", "enrichment ratio": "≤ 0.25"}
{"variant": "TFSC", "enrichment ratio": 7.99}
{"variant": "TDVI", "enrichment ratio": 11.8}
{"variant": "AISR", "enrichment ratio": 3.71}
{"variant": "PVCP", "enrichment ratio": "≤ 0.25"}
{"variant": "PGFV", "enrichment ratio": "≤ 0.25"}
{"variant": "TYYM", "enrichment ratio": "≤ 0.25"}
{"variant": "TFKD", "enrichment ratio": "≤ 0.25"}
{"variant": "DYRS", "enrichment ratio": "≤ 0.25"}
{"variant": "VMQN", "enrichment ratio": "≤ 0.25"}
{"variant": "ASAR", "enrichment ratio": "≤ 0.25"}
{"variant": "GTAV", "enrichment ratio": "≤ 0.25"}
{"variant": "YMAY", "enrichment ratio": "≤ 0.25"}
{"variant": "TYSY", "enrichment ratio": "≤ 0.25"}
{"variant": "YMED", "enrichment ratio": "≤ 0.25"}
{"variant": "TLLF", "enrichment ratio": "≤ 0.25"}
{"variant": "QCQP", "enrichment ratio": "≤ 0.25"}
{"variant": "GHCW", "enrichment ratio": "≤ 0.25"}
{"variant": "VRDA", "enrichment ratio": "≤ 0.25"}
{"variant": "QEIF", "enrichment ratio": "≤ 0.25"}
{"variant": "YYRC", "enrichment ratio": "≤ 0.25"}
{"variant": "SKIR", "enrichment ratio": "≤ 0.25"}
{"variant": "LQSK", "enrichment ratio": "≤ 0.25"}
{"variant": "YAYW", "enrichment ratio": "≤ 0.25"}
{"variant": "HFPD", "enrichment ratio": "≤ 0.25"}
{"variant": "PSAG", "enrichment ratio": "≤ 0.25"}
{"variant": "IYFF", "enrichment ratio": "≤ 0.25"}
{"variant": "KSHL", "enrichment ratio": "≤ 0.25"}
{"variant": "DRMQ", "enrichment ratio": "≤ 0.25"}
{"variant": "HELQ", "enrichment ratio": "≤ 0.25"}
{"variant": "FRDA", "enrichment ratio": "≤ 0.25"}
{"variant": "QRDC", "enrichment ratio": "≤ 0.25"}
{"variant": "WYID", "enrichment ratio": "≤ 0.25"}
{"variant": "TMVW", "enrichment ratio": "≤ 0.25"}
{"variant": "FINY", "enrichment ratio": "≤ 0.25"}
{"variant": "DYAW", "enrichment ratio": "≤ 0.25"}
{"variant": "FGML", "enrichment ratio": 22.9}
{"variant": "TYQE", "enrichment ratio": "≤ 0.25"}
{"variant": "IQHT", "enrichment ratio": "≤ 0.25"}
{"variant": "WPQY", "enrichment ratio": "≤ 0.25"}
{"variant": "KTQG", "enrichment ratio": "≤ 0.25"}
{"variant": "AHAW", "enrichment ratio": "≤ 0.25"}
{"variant": "SIPK", "enrichment ratio": "≤ 0.25"}
{"variant": "YRDE", "enrichment ratio": "≤ 0.25"}
{"variant": "QLYR", "enrichment ratio": 0.63}
{"variant": "TWSD", "enrichment ratio": "≤ 0.25"}
{"variant": "EDDI", "enrichment ratio": "≤ 0.25"}
{"variant": "RQDQ", "enrichment ratio": "≤ 0.25"}
{"variant": "NICH", "enrichment ratio": "≤ 0.25"}
{"variant": "VQFG", "enrichment ratio": "≤ 0.25"}
{"variant": "DCNT", "enrichment ratio": "≤ 0.25"}
{"variant": "SKTI", "enrichment ratio": 14.2}
{"variant": "PYFV", "enrichment ratio": "≤ 0.25"}
{"variant": "VPNA", "enrichment ratio": "≤ 0.25"}
{"variant": "DMDH", "enrichment ratio": "≤ 0.25"}
{"variant": "TPRP", "enrichment ratio": "≤ 0.25"}
{"variant": "ANPM", "enrichment ratio": "≤ 0.25"}
{"variant": "TGMW", "enrichment ratio": "≤ 0.25"}
{"variant": "YSKC", "enrichment ratio": "≤ 0.25"}
{"variant": "YMIV", "enrichment ratio": "≤ 0.25"}
{"variant": "GWYQ", "enrichment ratio": "≤ 0.25"}
{"variant": "NQRY", "enrichment ratio": "≤ 0.25"}
{"variant": "FMIF", "enrichment ratio": "≤ 0.25"}
{"variant": "KHGA", "enrichment ratio": "≤ 0.25"}
{"variant": "KILW", "enrichment ratio": "≤ 0.25"}
{"variant": "EKQR", "enrichment ratio": "≤ 0.25"}
{"variant": "NVVS", "enrichment ratio": "≤ 0.25"}
{"variant": "QHVG", "enrichment ratio": "≤ 0.25"}
{"variant": "DEHE", "enrichment ratio": "≤ 0.25"}
{"variant": "AKRI", "enrichment ratio": "≤ 0.25"}
{"variant": "KYSI", "enrichment ratio": "≤ 0.25"}
{"variant": "NFLL", "enrichment ratio": "≤ 0.25"}
{"variant": "QWSM", "enrichment ratio": "≤ 0.25"}
{"variant": "NDSL", "enrichment ratio": "≤ 0.25"}
{"variant": "PGPH", "enrichment ratio": "≤ 0.25"}
{"variant": "ALGT", "enrichment ratio": "≤ 0.25"}
{"variant": "DWHP", "enrichment ratio": "≤ 0.25"}
{"variant": "TQSC", "enrichment ratio": 15.3}
{"variant": "LCSE", "enrichment ratio": "≤ 0.25"}
{"variant": "YQKV", "enrichment ratio": "≤ 0.25"}
{"variant": "QYYY", "enrichment ratio": "≤ 0.25"}
{"variant": "HKEH", "enrichment ratio": "≤ 0.25"}
